{
  "source": "PubChem BioAssay AID1721",
  "about": "(National Center for Advancing Translational Sciences (NCATS), 2009)",
  "note": "Among all 290,000 compounds or so, about 1,100 (0.38%) were called active. The inconclusive results got no clear call from the source; some entries with a clear call stand among them for comparison. Calls come from the whole dose curve; as a rule, active = well fitted inhibition curve with a large enough effect; inconclusive = small, poorly fitted or top-dose-only effect, or another doubt; inactive = no such curve, though single readings can be large or run the other way. Where the call is inconclusive, the potency comes from a doubtful curve fit. % is set by controls: 0 for no effect and ±100 for the full control effect; potency is the fitted concentration of half-maximal effect; tags give direction and shape of the fitted curve.",
  "data": [
    {"target": "Pyruvate kinase (Leishmania mexicana) (UniProt Q27686)", "sequence (Q27686 whole entry, looked up)": "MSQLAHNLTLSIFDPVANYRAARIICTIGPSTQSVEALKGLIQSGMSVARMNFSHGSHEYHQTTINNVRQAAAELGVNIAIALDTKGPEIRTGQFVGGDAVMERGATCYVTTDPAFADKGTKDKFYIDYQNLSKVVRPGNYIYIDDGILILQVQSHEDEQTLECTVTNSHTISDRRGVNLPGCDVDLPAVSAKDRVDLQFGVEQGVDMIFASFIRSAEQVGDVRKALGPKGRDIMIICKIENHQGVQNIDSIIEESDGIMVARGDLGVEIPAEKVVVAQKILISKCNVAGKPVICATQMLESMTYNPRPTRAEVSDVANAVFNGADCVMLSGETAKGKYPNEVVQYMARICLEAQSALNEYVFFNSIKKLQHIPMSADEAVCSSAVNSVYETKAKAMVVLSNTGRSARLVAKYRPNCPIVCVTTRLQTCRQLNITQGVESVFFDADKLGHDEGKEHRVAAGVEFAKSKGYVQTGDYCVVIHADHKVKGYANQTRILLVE", "assay": "qHTS Assay for Inhibitors of Leishmania Mexicana Pyruvate Kinase (LmPK)", "conditions": "purified LmPK, Kinase-Glo ATP luminescence, 1 h; activity change, negative = inhibition: at 57.5 µM (top of the series) unless noted", "summary_of_the_method": "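Kinase-Glo luminescence read after 1 h RT reaction of 0.1 nM LmPK with 0.5 mM PEP and 0.1 mM ADP. Activity scaled between uninhibited and enzyme-free controls.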", "values": [
      {"smiles": "CCOC(=O)C1CCCN(C2CC(=O)N(c3cccc(C)c3)C2=O)C1", "note": "(centres undefined)", "activity change, negative = inhibition": "inactive: 0.805%"},
      {"smiles": "Cc1ccc(C)c(-n2c(-c3ccc4c(c3)OCO4)n[nH]c2=S)c1", "Potency": "active: 3.98 µM"},
      {"smiles": "CCn1c(SCC(=O)N/N=C/C=C\\c2ccccc2[N+](=O)[O-])nnc1-c1ccccc1", "activity change, negative = inhibition": "inactive: 1.8%"},
      {"smiles": "Nc1ccc2oc(-c3ccccn3)nc2c1", "Potency": "inconclusive: 28.2 µM [falling, single point]"},
      {"smiles": "CCOC(=O)C1=C(O)c2ccccc2C(=O)/C1=C\\c1ccc(CC)cc1", "Potency": "inconclusive: 14.1 µM [falling, partial curve]"},
      {"smiles": "C/C(=N\\NC(=O)c1ccn(C)n1)c1ccc(NC(=O)C2CCC2)cc1", "activity change, negative = inhibition": "inactive: -11.5%"},
      {"smiles": "CN1C(=O)C(=O)/C(=C(/O)c2ccccc2)C1c1ccccc1", "note": "(centres undefined)", "activity change, negative = inhibition": "inactive: -5.83%"},
      {"smiles": "O=[N+]([O-])c1ccc(N/N=C/c2c[nH]c3ccccc23)c(S(=O)(=O)Nc2ccc(Cl)cc2)c1", "Potency": "inconclusive: 28.2 µM [falling, single point]"},
      {"smiles": "Brc1ccc(-c2cn3nc4c(nc3n2)CCCC4)cc1", "Potency": "inconclusive: 28.2 µM [falling, partial curve]"},
      {"smiles": "Cc1ccc2c(c1)N=C(c1ccccc1)CC(C(Cl)Cl)=N2", "Potency": "inconclusive: 28.2 µM [falling, single point]"},
      {"smiles": "COc1ccc(-c2noc(-c3ccoc3C)n2)cc1", "Potency": "inconclusive: 8.91 µM [falling, partial curve]"},
      {"smiles": "CCOC(=O)c1sc(NC(=O)c2cccs2)cc1C", "Potency": "inconclusive: 31.6 µM [falling, single point]"},
      {"smiles": "CCOC(=O)CCSc1nc(C)c2cc(OC)ccc2n1", "activity change, negative = inhibition": "inactive: 1.1%"},
      {"smiles": "CSc1ccc(-c2ccco2)nn1", "Potency": "inconclusive: 28.2 µM [falling, single point]"},
      {"smiles": "CC(C)C(=O)Nc1ccc(NC(=O)c2ccccn2)cn1", "Potency": "inconclusive: 15.8 µM [falling, partial curve]"},
      {"smiles": "CCOc1ccc2nc(N3C(=O)CNC3=S)sc2c1", "Potency": "inconclusive: 25.1 µM [falling, partial curve]"},
      {"smiles": "CCN(CC)C(=O)CSc1nc2ccccc2c(=O)n1OC", "activity change, negative = inhibition": "inactive: -3.82%"},
      {"smiles": "CC(C)n1c(-c2ccccc2F)n[nH]c1=S", "Potency": "inconclusive: 12.6 µM [falling, partial curve]"},
      {"smiles": "Cn1c(/N=C/c2ccc3c(c2)OCO3)nc2ccccc21", "Potency": "active: 12.6 µM"},
      {"smiles": "CC(C)CCn1c(=O)c2ccccc2n2c(CN3CCCC3)nnc12", "activity change, negative = inhibition": "inactive: -1.66%"},
      {"smiles": "Cc1ccc(-n2c(CC#N)n[nH]c2=S)c(C)c1", "Potency": "inconclusive: 39.8 µM [falling, single point]"},
      {"smiles": "CNc1nc(N2CCc3ccccc32)ncc1F", "Potency": "inconclusive: 25.1 µM [falling, single point]"},
      {"smiles": "COc1ccc(NC(=O)c2cc(Cl)ccc2Cl)c([N+](=O)[O-])c1", "activity change, negative = inhibition": "inactive: 2.05%"},
      {"smiles": "Cc1cc(C)nc(N/N=C/c2sccc2C)n1", "Potency": "inconclusive: 25.1 µM [falling, partial curve]"},
      {"smiles": "Cc1cc(NC(=O)c2ccc3c(c2)OCO3)ccc1NC(=O)c1ccco1", "Potency": "active: 14.1 µM"},
      {"smiles": "Cc1ccc2nc3sc(C(=O)Nc4c(C)[nH]c(=O)[nH]c4=O)c(N)c3cc2c1", "activity change, negative = inhibition": "inactive: -3.61%"},
      {"smiles": "O=C(Nc1ccc(N2CCCC2=O)cc1)c1cccc(F)c1", "Potency": "inconclusive: 5.62 µM [falling, partial curve]"},
      {"smiles": "C/C(=N/NC(=O)OC(C)(C)C)c1ccco1", "Potency": "inconclusive: 20 µM [falling, partial curve]"},
      {"smiles": "O=C(Nc1ccc(N2CCCC2)cc1)c1ccccc1F", "Potency": "inconclusive: 8.91 µM [falling, full curve]"},
      {"smiles": "CCCCNC(=O)COC(=O)CCC(=O)c1ccc(Cl)cc1", "Potency": "inconclusive: 22.4 µM [falling, single point]"},
      {"smiles": "Cc1c(C(=O)O)c(C(=O)O)nc2ccc(N3CCOCC3)cc12", "activity change, negative = inhibition": "inactive: -0.364%"},
      {"smiles": "O=C(O)c1cc(/C=C/c2ccc(N3CCOCC3)cc2)nc2ccccc12", "Potency": "inconclusive: 12.6 µM [falling, partial curve]"},
      {"smiles": "CCOc1cnc(C(=O)NNC(=O)c2ccccc2Br)o1", "Potency": "inconclusive: 22.4 µM [falling, partial curve]"},
      {"smiles": "Cc1ccc2c(c1)CC1(CN2C)C(=O)OC(C)(C)OC1=O", "Potency": "active: 15.8 µM"},
      {"smiles": "COc1ccc(C(=O)O/N=C(\\N)c2ccccc2)c(OC)c1", "Potency": "inconclusive: 25.1 µM [falling, single point]"},
      {"smiles": "COc1ccccc1C(=O)Nc1ccccc1C(=O)NCc1ccco1", "activity change, negative = inhibition": "inactive: -3.04%"},
      {"smiles": "CC1CCCN(C(=O)c2ccc3c(c2NCCO)C(=O)c2ccccc2C3=O)C1", "note": "(centres undefined)", "Potency": "inconclusive: 28.2 µM [falling, single point]"},
      {"smiles": "N/C(=N\\N=C\\c1ccc(O)c(O)c1)c1nonc1N", "Potency": "inconclusive: 25.1 µM [falling, partial curve]"},
      {"smiles": "CC(C)(C)c1ccc2c(c1)C(=O)c1ccccc1C2=O", "Potency": "inconclusive: 15.8 µM [falling, partial curve]"}
    ]}
  ]
}
